These are yes or no findings as the source states them, for the method shown. Binding seen in cells or lysates may run through a third protein. Some binding calls cover weakened binding; strength is not graded here.
Molecular target: IAA7, BiFC fusion (Arabidopsis) (UniProt Q38825)
Assay: split reporter; BiFC after transient expression in Nicotiana benthamiana leaves, confocal imaging; some TIR1-TIR1 samples with co-expressed Myc:ASK1 and 100 uM CHX

By UniProt entry, the sequences of proteins in these tests, tags left out.
UniProt Q38825: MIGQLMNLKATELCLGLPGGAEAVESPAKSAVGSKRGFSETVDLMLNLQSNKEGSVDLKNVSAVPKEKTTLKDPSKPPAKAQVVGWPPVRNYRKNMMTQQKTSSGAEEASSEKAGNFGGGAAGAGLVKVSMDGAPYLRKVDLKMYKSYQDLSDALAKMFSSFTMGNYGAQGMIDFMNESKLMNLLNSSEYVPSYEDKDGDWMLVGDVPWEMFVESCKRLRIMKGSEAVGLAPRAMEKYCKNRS

binding: binds
Substance: IAA7, BiFC fusion (from UniProt Q38825 1-243)

Source: publication PMC5019376
